Test results as given in article PMC6656940.

Substrate: CC#CC(=O)N1CCC[C@H]1c1nc(-c2ccc(C(=O)Nc3ccccn3)cc2)c2c(N)nccn12
Assay: Conversion of acalabrutinib to ACP-5862 in recombinant CYP enzymes
Assay type: in vitro ADME
Conditions: other: conversion of acalabrutinib to ACP-5862, recombinant CYP3A4

B1: CYP3A4 (Homo sapiens) (protein)
chain: MALIPDLAMETWLLLAVSLVLLYLYGTHSHGLFKKLGIPGPTPLPFLGNILSYHKGFCMFDMECHKKYGKVWGFYDGQQPVLAITDPDMIKTVLVKECYSVFTNRRPFGPVGFMKSAISIAEDEEWKRLRSLLSPTFTSGKLKEMVPIIAQYGDVLVRNLRREAETGKPVTLKDVFGAYSMDVITSTSFGVNIDSLNNPQDPFVENTKKLLRFDFLDPFFLSITVFPFLIPILEVLNICVFPREVTNFLRKSVKRMKESRLEDTQKHRVDFLQLMIDSQNSKETESHKALSDLELVAQSIIFIFAGYETTSSVLSFIMYELATHPDVQQKLQEEIDAVLPNKAPPTYDTVLQMEYLDMVVNETLRLFPIAMRLERVCKKDVEINGMFIPKGVVVMIPSYALHRDPKYWTEPEKFLPERFSKKNKDNIDPYIYTPFGSGPRNCIGMRFALMNMKLALIRVLQNFSFKPCKETQIPLKLSLGGLLQPEKPVVLKVESRDGTVSGA
Km: 2.78 µM | kcat: 4.13 pmol/minutes/pmol
